# Assay results taken from the supplement of paper PMC8728848.
# The list shows a part of the results.
# B1: Epa1-NP-mutant-Y228A (Candida glabrata), Q6VBJ0 (protein)
# chain: MILNPALFLNKCVCIYTTLILLLLTNGGYATSSNDISLASKDPTTFPLGCSPDITTPKKGLSMELYSYDFRKKGSYPCWDAAYLDPNYPRTGYKSHRLLAKVDGVTGNINFYYHATKGCTPQLGHLPASYNYPKPLTMTNFTMLLYGYFRPKVTGFHTFTISADDLLFVNFGAGNAFDCCRRDSSADHFGNYQAYAIWGSKTAKDELTVHLDAGVYYPIRLFYNNREADGALSFTFKTESNENTVSDFSEYFFSLDDTEEGCPGLISYDSSCASVKTSKIIGIDYHTETPNENLVPITKTIYHLGIPCTGTTTTPLCGSGFYDPLANKCVTINTSSTSSVTKTTSHTTSKEVSFHSSISSQKTLIPKSIPSPYGPIKSQSIPTEMETSSEISSSEYAFSDVISTPSHSPYTKKHSSLNSSSYTSTVIHSLTSYSISQGIFSTSLSEQNITSKSSTDKFSTATSMSNNITQSSIIISQFSTNNENYTTTSMHTSSDKISTETLNNSISTTTSILFSNSSTILKNNTTIISSDKDTHYHPVNPTIVCSTNKTEIICASITQPSISNSNNHWSSSVLKFNSTTVRSTLPSSAGSNETSINVPFSSSTESNTSTSSTSTSNSKMVRSTLPSSAGSNETSISVPFSSSTESNTSTSSTSTSNSKMVRSTLPSSAGSNETSINVPFSSSTESNTSTSSTSTSNSKTVRSTPFSSAGIIMTSLSQRNNKSASSYASSNSKCYNTADSCRKVHSTPSYLLTSSYTSEGVDYDCSLVSTKLKINDTNCVNNKHTTKSCLKTSVTTTIPTLEIKTARKSSSNTIGLHSYPTSSPNKSISSAPIIGYISSFKTIKTASPSYQTSDLTTITTITSLNNPGSTAVENTHESNDKSRKTSSNDISSKHSVIKETKDAVESSNKSHQTNTLKCSSIIIASSSHNSYESLGGTTLTLTLSKVYSPQNNDTLPFLEISEVNPSRTVLPESSKMMQYLTSTEERNKTARNTIATNIVSISTFHFEGEGNAIRMGYTQLLLMLIGIIVMNIGT
# Legend:
# Assay in all cases: glycan array binding signal (z-score within array); higher = stronger binding
# Conditions in all cases: glycan notation: IUPAC condensed, linker removed; mutation: Y228A
# [1] = target: Fuc(a1-2)[Gal(a1-3)]Gal(b1-4)GlcNAc(b1-2)Man(a1-3)[Fuc(a1-2)[Gal(a1-3)]Gal(b1-4)GlcNAc(b1-2)Man(a1-6)]Man(b1-4)GlcNAc(b1-4)GlcNAc
# How it was run: (§1)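 The binding signal is a Z-score computed within each array and averaged over linkers. Arrays of the same protein sequence at different concentrations or buffers were also averaged together. Data originate from 3228 arrays in the Consortium for Functional Glycomics database, kept only where the protein sequence was available.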
# [2] = target: Fuc(a1-2)[Gal(a1-3)]Gal(b1-4)GlcNAc(b1-2)Man(a1-3)[Fuc(a1-2)[Gal(a1-3)]Gal(b1-4)GlcNAc(b1-2)Man(a1-6)]Man(b1-4)GlcNAc(b1-4)[Fuc(a1-6)]GlcNAc
# How it was run: as §1
# [3] = target: Fuc(a1-2)[Gal(a1-3)]Gal(b1-4)GlcNAc(b1-3)GalNAc
# How it was run: as §1
# [4] = target: Fuc(a1-2)[Gal(a1-3)]Gal(b1-4)GlcNAc(b1-3)[Fuc(a1-2)[Gal(a1-3)]Gal(b1-4)GlcNAc(b1-6)]GalNAc
# How it was run: as §1
# [5] = target: Fuc(a1-2)[Gal(a1-3)]Gal(b1-4)GlcNAc(b1-6)GalNAc
# How it was run: as §1
# [6] = target: Fuc(a1-2)[Gal(a1-3)]Gal(b1-4)[Fuc(a1-3)]Glc
# How it was run: as §1
# [7] = target: Fuc(a1-2)[Gal(a1-3)]Gal(b1-4)[Fuc(a1-3)]GlcNAc
# How it was run: as §1
# [8] = target: Fuc(a1-2)[Gal(a1-3)]Gal(b1-4)[Fuc(a1-3)]GlcNAc(b1-3)GalNAc
# How it was run: as §1
# [9] = target: Fuc(a1-2)[Gal(a1-4)]Gal(b1-4)GlcNAc
# How it was run: as §1
# [10] = target: Fuc(a1-2)[GalNAc(a1-3)]Gal
# How it was run: as §1
# [11] = target: Fuc(a1-2)[GalNAc(a1-3)]Gal(b1-3)GalNAc(a1-3)[Fuc(a1-2)]Gal(b1-4)GlcNAc
# How it was run: as §1
# [12] = target: Fuc(a1-2)[GalNAc(a1-3)]Gal(b1-3)GalNAc(b1-3)Gal(a1-4)Gal(b1-4)Glc
# How it was run: as §1
# [13] = target: Fuc(a1-2)[GalNAc(a1-3)]Gal(b1-3)GlcNAc
# How it was run: as §1
# [14] = target: Fuc(a1-2)[GalNAc(a1-3)]Gal(b1-3)GlcNAc(b1-2)Man(a1-3)[Fuc(a1-2)[GalNAc(a1-3)]Gal(b1-3)GlcNAc(b1-2)Man(a1-6)]Man(b1-4)GlcNAc(b1-4)GlcNAc
# How it was run: as §1
# [15] = target: Fuc(a1-2)[GalNAc(a1-3)]Gal(b1-3)GlcNAc(b1-2)Man(a1-3)[Fuc(a1-2)[GalNAc(a1-3)]Gal(b1-3)GlcNAc(b1-2)Man(a1-6)]Man(b1-4)GlcNAc(b1-4)[Fuc(a1-6)]GlcNAc
# How it was run: as §1
# [16] = target: Fuc(a1-2)[GalNAc(a1-3)]Gal(b1-3)GlcNAc(b1-3)GalNAc
# How it was run: as §1
# [17] = target: Fuc(a1-2)[GalNAc(a1-3)]Gal(b1-3)GlcNAc(b1-6)GalNAc
# How it was run: as §1
# [18] = target: Fuc(a1-2)[GalNAc(a1-3)]Gal(b1-4)Glc
# How it was run: as §1
# [19] = target: Fuc(a1-2)[GalNAc(a1-3)]Gal(b1-4)GlcNAc
# How it was run: as §1
# [20] = target: Fuc(a1-2)[GalNAc(a1-3)]Gal(b1-4)GlcNAc(b1-2)Man
# How it was run: as §1
# [21] = target: Fuc(a1-2)[GalNAc(a1-3)]Gal(b1-4)GlcNAc(b1-2)Man(a1-3)[Fuc(a1-2)[GalNAc(a1-3)]Gal(b1-4)GlcNAc(b1-2)Man(a1-6)]Man(b1-4)GlcNAc(b1-4)GlcNAc
# How it was run: as §1
# [22] = target: Fuc(a1-2)[GalNAc(a1-3)]Gal(b1-4)GlcNAc(b1-2)Man(a1-3)[Fuc(a1-2)[GalNAc(a1-3)]Gal(b1-4)GlcNAc(b1-2)Man(a1-6)]Man(b1-4)GlcNAc(b1-4)[Fuc(a1-6)]GlcNAc
# How it was run: as §1
# [23] = target: Fuc(a1-2)[GalNAc(a1-3)]Gal(b1-4)GlcNAc(b1-3)Gal(b1-4)GlcNAc
# How it was run: as §1
# [24] = target: Fuc(a1-2)[GalNAc(a1-3)]Gal(b1-4)GlcNAc(b1-3)Gal(b1-4)GlcNAc(b1-3)Gal(b1-4)GlcNAc
# How it was run: as §1
# [25] = target: Fuc(a1-2)[GalNAc(a1-3)]Gal(b1-4)GlcNAc(b1-3)GalNAc
# How it was run: as §1
# [26] = target: Fuc(a1-2)[GalNAc(a1-3)]Gal(b1-4)GlcNAc(b1-3)[Fuc(a1-2)[GalNAc(a1-3)]Gal(b1-4)GlcNAc(b1-6)]GalNAc
# How it was run: as §1
# [27] = target: Fuc(a1-2)[GalNAc(a1-3)]Gal(b1-4)GlcNAc(b1-6)GalNAc
# How it was run: as §1
# [28] = target: Fuc(a1-2)[GalNAc(a1-3)]Gal(b1-4)[Fuc(a1-3)]GlcNAc
# How it was run: as §1
# [29] = target: Fuc(a1-2)[GalNAc(a1-3)]Gal(b1-4)[Fuc(a1-3)]GlcNAc(b1-3)GalNAc
# How it was run: as §1
# [30] = target: Fuc(a1-2)[GalNAc(a1-4)]Gal(b1-4)GlcNAc
# How it was run: as §1
binder,measurement,setting,value
B1,glycan array binding signal (z-score),[1],-0.11
same,glycan array binding signal (z-score),[2],-0.271
same,glycan array binding signal (z-score),[3],-0.074
same,glycan array binding signal (z-score),[4],-0.15
same,glycan array binding signal (z-score),[5],0.01
same,glycan array binding signal (z-score),[6],-0.203
same,glycan array binding signal (z-score),[7],-0.183
same,glycan array binding signal (z-score),[8],-0.061
same,glycan array binding signal (z-score),[9],-0.062
same,glycan array binding signal (z-score),[10],-0.148
same,glycan array binding signal (z-score),[11],-0.281
same,glycan array binding signal (z-score),[12],-0.248
same,glycan array binding signal (z-score),[13],-0.2
same,glycan array binding signal (z-score),[14],-0.295
same,glycan array binding signal (z-score),[15],-0.178
same,glycan array binding signal (z-score),[16],0.018
same,glycan array binding signal (z-score),[17],-0.252
same,glycan array binding signal (z-score),[18],-0.225
same,glycan array binding signal (z-score),[19],-0.198
same,glycan array binding signal (z-score),[20],-0.307
same,glycan array binding signal (z-score),[21],-0.148
same,glycan array binding signal (z-score),[22],-0.147
same,glycan array binding signal (z-score),[23],-0.101
same,glycan array binding signal (z-score),[24],-0.057
same,glycan array binding signal (z-score),[25],-0.186
same,glycan array binding signal (z-score),[26],-0.156
same,glycan array binding signal (z-score),[27],-0.248
same,glycan array binding signal (z-score),[28],-0.096
same,glycan array binding signal (z-score),[29],-0.066
same,glycan array binding signal (z-score),[30],-0.183
